Test in all cases: protein-binding microarray (PBM)
What all share (settings): PBM: ~300 nM protein, 6 mM HEPES pH 7.8, 80 mM KCl, 0.5 mM EDTA, 0.5 mM EGTA, 6% glycerol, 35 ng/ul poly-dIdC, 1% milk, 1 h, room temperature; Ap Aiptasia and Nv Nematostella (sea anemones) / Co Capsaspora / Aq Amphimedon (sponge) / Dm Drosophila / Hu human; RHD is the Rel homology domain; high values mean tight binding; most listed sequences are background and not binding sites; double strand, one strand shown

One assay concerns the target T1, GST-Ap-NF-kB RHD (UniProt A0A913YAJ5).
T1 sequence: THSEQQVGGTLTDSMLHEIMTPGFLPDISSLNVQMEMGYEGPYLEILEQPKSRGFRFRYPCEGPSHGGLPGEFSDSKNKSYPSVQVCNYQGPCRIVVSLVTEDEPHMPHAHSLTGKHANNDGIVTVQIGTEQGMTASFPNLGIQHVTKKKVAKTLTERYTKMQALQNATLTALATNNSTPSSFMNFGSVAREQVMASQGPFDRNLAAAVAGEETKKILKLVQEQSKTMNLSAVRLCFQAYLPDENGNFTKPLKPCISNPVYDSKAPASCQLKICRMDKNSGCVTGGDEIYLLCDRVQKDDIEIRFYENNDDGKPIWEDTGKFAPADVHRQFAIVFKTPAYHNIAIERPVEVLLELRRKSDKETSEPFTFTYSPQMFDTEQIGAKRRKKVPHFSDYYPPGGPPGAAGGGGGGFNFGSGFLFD

Assay [1] concerns the target T2, GST-Nv-NF-kB (Cys allele) (UniProt E5G601).
T2 sequence: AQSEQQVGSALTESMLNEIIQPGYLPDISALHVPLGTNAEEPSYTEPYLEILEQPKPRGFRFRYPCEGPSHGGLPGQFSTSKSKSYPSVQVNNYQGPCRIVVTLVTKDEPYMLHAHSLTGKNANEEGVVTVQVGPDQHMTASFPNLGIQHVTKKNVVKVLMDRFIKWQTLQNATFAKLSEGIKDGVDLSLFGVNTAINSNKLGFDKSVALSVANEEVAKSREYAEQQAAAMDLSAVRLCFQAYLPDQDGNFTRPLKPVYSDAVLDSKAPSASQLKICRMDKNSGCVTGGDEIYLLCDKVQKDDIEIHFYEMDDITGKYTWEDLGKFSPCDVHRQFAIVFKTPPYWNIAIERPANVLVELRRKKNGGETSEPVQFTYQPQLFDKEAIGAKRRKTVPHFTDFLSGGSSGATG

The target in another assay is T3, GST-Co-NF-kB (UniProt F1ARL5).
T3 sequence: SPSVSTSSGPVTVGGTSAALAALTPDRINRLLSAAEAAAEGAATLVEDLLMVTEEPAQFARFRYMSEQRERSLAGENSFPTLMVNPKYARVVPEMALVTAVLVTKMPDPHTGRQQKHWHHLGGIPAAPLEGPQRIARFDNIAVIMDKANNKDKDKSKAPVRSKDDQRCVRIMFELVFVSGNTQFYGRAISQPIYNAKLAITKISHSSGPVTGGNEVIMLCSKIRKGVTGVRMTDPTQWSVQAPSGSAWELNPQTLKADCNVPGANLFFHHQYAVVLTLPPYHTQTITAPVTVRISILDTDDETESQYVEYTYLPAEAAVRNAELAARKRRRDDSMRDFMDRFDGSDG

The target of the next assay is T4, GST-Dm-Relish (UniProt Q94527).
T4 sequence: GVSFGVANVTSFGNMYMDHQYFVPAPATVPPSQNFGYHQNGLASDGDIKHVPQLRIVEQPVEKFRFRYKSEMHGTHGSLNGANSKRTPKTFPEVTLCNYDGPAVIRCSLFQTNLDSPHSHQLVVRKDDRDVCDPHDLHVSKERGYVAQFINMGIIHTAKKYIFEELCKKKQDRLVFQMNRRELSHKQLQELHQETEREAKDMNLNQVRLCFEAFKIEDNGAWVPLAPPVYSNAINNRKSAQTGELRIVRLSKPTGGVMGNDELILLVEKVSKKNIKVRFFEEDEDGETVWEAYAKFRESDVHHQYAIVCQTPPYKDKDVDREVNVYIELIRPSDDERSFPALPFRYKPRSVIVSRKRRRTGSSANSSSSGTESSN

The target in a further assay is T5, GST-Aq-NF-kB (UniProt A9Y5G7).
T5 sequence: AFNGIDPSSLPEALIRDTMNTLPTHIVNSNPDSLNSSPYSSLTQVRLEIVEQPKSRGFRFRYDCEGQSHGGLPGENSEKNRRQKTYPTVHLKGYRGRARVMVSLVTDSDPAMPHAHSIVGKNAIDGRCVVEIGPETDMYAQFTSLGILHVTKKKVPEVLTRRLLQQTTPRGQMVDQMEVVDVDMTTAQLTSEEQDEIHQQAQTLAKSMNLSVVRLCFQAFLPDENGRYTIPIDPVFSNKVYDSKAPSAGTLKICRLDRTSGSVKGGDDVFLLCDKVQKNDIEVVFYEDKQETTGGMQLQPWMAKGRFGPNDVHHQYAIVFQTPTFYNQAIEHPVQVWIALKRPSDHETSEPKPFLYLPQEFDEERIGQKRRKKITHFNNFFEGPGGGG

These results are taken from PMC5700166.

The entries are a selection whose mix differs from that of the whole data set. The list includes weakly bound sequences.

As to “CCGATTAACATCACCAACCCGAGTGATGTTAATCGGGTCTTGATTCGCTTGACGCTGCTG”, the binding signal with GST-Ap-NF-kB RHD is 0.166 z-score; in assay [1] it was 0.603 z-score; in the assay with GST-Co-NF-kB, 0.5 z-score; with GST-Dm-Relish, 0.794 z-score; with GST-Aq-NF-kB, -0.0652 z-score.
As for “CCGATTAACATCAACGTAGTGCGTGATGTTAATCGGGTCTTGATTCGCTTGACGCTGCTG”, the binding signal with GST-Ap-NF-kB RHD was -0.0186 z-score; in assay [1] it was -0.222 z-score; in the assay with GST-Co-NF-kB, -0.108 z-score; in the assay with GST-Dm-Relish, -0.13 z-score; with GST-Aq-NF-kB, -0.185 z-score.
In the same order, the values of “CCGATTAACATCAGTTTCCGAAGTGATGTTAATCGGGTCTTGATTCGCTTGACGCTGCTG” are -0.487 z-score, 0.344 z-score, 0.0647 z-score, -0.218 z-score and -0.228 z-score.
“CCGATTAACATCAAGGTCGTATATGATGTTAATCGGGTCTTGATTCGCTTGACGCTGCTG”: the binding signal is -0.285 z-score in the assay with GST-Ap-NF-kB RHD; -0.691 z-score in assay [1]; -0.54 z-score in the assay with GST-Co-NF-kB; -0.518 z-score in the assay with GST-Dm-Relish; -0.209 z-score in the assay with GST-Aq-NF-kB.
Consider “CCGATTAACATCACAGGCCCGGCTGATGTTAATCGGGTCTTGATTCGCTTGACGCTGCTG”, for which the binding signal in the assay with GST-Ap-NF-kB RHD was 0.589 z-score; in assay [1] it was -0.958 z-score; with GST-Co-NF-kB, -0.112 z-score; in the assay with GST-Dm-Relish it was -0.263 z-score; with GST-Aq-NF-kB, 0.286 z-score.
In the same order, the values of “CCGATTAACATCAGAGCACGCTTTGATGTTAATCGGGTCTTGATTCGCTTGACGCTGCTG” are -0.275 z-score, 0.0368 z-score, -0.537 z-score, -0.749 z-score and -0.255 z-score.
For “CCGATTAACATCACGCCGTCGGATGATGTTAATCGGGTCTTGATTCGCTTGACGCTGCTG”, in that order: -0.427 z-score, -0.393 z-score, -0.985 z-score, -0.51 z-score and -0.378 z-score.
As to “CCGATTAACATCAGAACTACTTCTGATGTTAATCGGGTCTTGATTCGCTTGACGCTGCTG”, the binding signal was -0.822 z-score with GST-Ap-NF-kB RHD; -0.118 z-score in assay [1]; -0.459 z-score with GST-Co-NF-kB; -0.0419 z-score with GST-Dm-Relish; -0.65 z-score with GST-Aq-NF-kB.
In the same order, the values of “CCGATTAACATCATTCCGGTATGTGATGTTAATCGGGTCTTGATTCGCTTGACGCTGCTG” are 0.291 z-score, -0.432 z-score, -0.263 z-score, 0.0822 z-score and 0.594 z-score.
Regarding “CCGATTAACATCAATGCGGCTAGTGATGTTAATCGGGTCTTGATTCGCTTGACGCTGCTG”, the binding signal with GST-Ap-NF-kB RHD was 0.208 z-score; in assay [1] it was -0.469 z-score; with GST-Co-NF-kB, -0.131 z-score; with GST-Dm-Relish, -0.523 z-score; with GST-Aq-NF-kB, -0.325 z-score.
For “CCGATTAACATCAGAAATTTGCCTGATGTTAATCGGGTCTTGATTCGCTTGACGCTGCTG”, in that order: -0.281 z-score, -0.348 z-score, 0.444 z-score, -0.0302 z-score and -0.016 z-score.
For the sequence “CCGATTAACATCATTAAATCTCATGATGTTAATCGGGTCTTGATTCGCTTGACGCTGCTG”, the binding signal in the assay with GST-Ap-NF-kB RHD was -0.43 z-score; in assay [1], -0.0899 z-score; with GST-Co-NF-kB, -0.708 z-score; with GST-Dm-Relish, -0.276 z-score; with GST-Aq-NF-kB, -0.464 z-score.
Take “CCGATTAACATCATATGAAGTGTTGATGTTAATCGGGTCTTGATTCGCTTGACGCTGCTG”: the binding signal is -0.866 z-score with GST-Ap-NF-kB RHD; 0.272 z-score in assay [1]; -0.273 z-score with GST-Co-NF-kB; -0.192 z-score in the assay with GST-Dm-Relish; -0.5 z-score in the assay with GST-Aq-NF-kB.
Turning to “CCGATTAACATCAGCAATCCTTGTGATGTTAATCGGGTCTTGATTCGCTTGACGCTGCTG”, the binding signal is -0.872 z-score in the assay with GST-Ap-NF-kB RHD; -0.499 z-score in assay [1]; -0.0493 z-score with GST-Co-NF-kB; -0.202 z-score in the assay with GST-Dm-Relish; -0.347 z-score with GST-Aq-NF-kB.
